Consider 42 sequences from publication PMC7819943, “Rice protein-binding microarrays: a tool to detect cis-acting elements near promoter regions in rice”.

Some of the results follow.

In the experiment the target is T1, OsWOX13 (Oryza sativa, UniProt Q5QMM3 1-267).
T1 sequence: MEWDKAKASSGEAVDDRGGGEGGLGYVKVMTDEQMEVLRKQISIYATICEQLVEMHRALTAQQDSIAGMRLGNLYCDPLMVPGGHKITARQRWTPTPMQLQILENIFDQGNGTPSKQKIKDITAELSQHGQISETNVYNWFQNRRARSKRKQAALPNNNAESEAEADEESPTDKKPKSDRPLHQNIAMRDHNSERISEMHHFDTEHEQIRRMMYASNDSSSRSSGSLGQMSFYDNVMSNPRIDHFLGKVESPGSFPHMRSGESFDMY
Briefly: protein-binding microarray (RPBM); PBS, 2% BSA, 51.3 ng/ul salmon testes DNA, 50 uM zinc acetate, 200 nM TF, 25 C, 1 h; high values mean tight binding. The note with it: protein: recombinant; tags: N-terminal polyhistidine and DsRed monomer fusion (pET32a); label: CyDye5-dUTP incorporated in the synthesized complementary strand; 3' TTTTT single-stranded linker to array surface; dsDNA, one strand shown. Summed up:
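Per-feature fluorescence intensity (arbitrary units), read on an Axon 4000B scanner, is the binding signal. Transcription factors carrying an N-terminal polyhistidine tag and DsRed fusion were expressed in E. coli BL21-CodonPlus and purified on Ni–NTA. A custom Agilent array, made double-stranded by primer extension with Cy5-dUTP and blocked with 2% BSA, was incubated with 200 nM protein in PBS, 2% BSA, salmon testes DNA and 50 µM zinc acetate at 25 °C for 1 h and then washed.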
As for “ATAAAGTTTTAAACGTTAAATTAATTTTCTGGCCGAAGGGCGGAGTCACCTAGTGCAG”, the binding signal was 8740 fluorescence intensity (a.u.).
In the case of “TATCTAATAAATTTATTTTCAAGTTTATAATAATAAACATCGGAGTCACCTAGTGCAG” it was 10400 fluorescence intensity (a.u.).
With “ATCGGAAATTATTATTTTAATCGGCGCGGTGTCCACTGGCCGGAGTCACCTAGTGCAG”, the binding signal is 7500 fluorescence intensity (a.u.).
“TTATTAAGTTAACTATAGATGATTTGGAGTCAATAGTTGGCGGAGTCACCTAGTGCAG”: the binding signal was 10300 fluorescence intensity (a.u.).
For “TTTGATTCTCTGTTAGTCTGATTTCCCTCCTGGTTTGAATCGGAGTCACCTAGTGCAG” the value was 5880 fluorescence intensity (a.u.); for “GACATGTTCTTAATAATTGGCAGCAGATTTACTCATGTCGCGGAGTCACCTAGTGCAG”, 12800 fluorescence intensity (a.u.); for “GGAAACTGTCTATCCATTTTGTCGGGTGATTTCTCTCTAGCGGAGTCACCTAGTGCAG”, 9020 fluorescence intensity (a.u.).
As to “CGGTAGATTGAATTATTTGCTGATCTTTGCTTTCTTGAAGCGGAGTCACCTAGTGCAG”, the binding signal is 45900 fluorescence intensity (a.u.).
Turning to “TACCAATTACTTGTACTGTACTAGCTAGGAGTACTGTATACGGAGTCACCTAGTGCAG”, the binding signal was 3930 fluorescence intensity (a.u.).
Regarding “ATATGTAATTTGTTTTATTATTAGACTACGTTTAATACTTCGGAGTCACCTAGTGCAG”, the binding signal is 8720 fluorescence intensity (a.u.).
For the sequence “ATACTATTGTAAACAAATTAATCAATTTGAATGTCGGTCTCGGAGTCACCTAGTGCAG”, the binding signal is 3210 fluorescence intensity (a.u.).
“ATGATTGGTGAACTCGGCTATTGGCCAGAATAGGATATCCCGGAGTCACCTAGTGCAG”: the binding signal is 37700 fluorescence intensity (a.u.).
Consider “GGTAAGATTGATTTTGGTAGTAATCTAAACATGCCCTGGGCGGAGTCACCTAGTGCAG”, for which the binding signal was 46400 fluorescence intensity (a.u.).
As for “TTAAGATAGTTGATTACCTACGCAAGAAAGAGAGATGCTTCGGAGTCACCTAGTGCAG”, the binding signal was 7670 fluorescence intensity (a.u.).
“CCTATAATTGGAAACTCATTATTGTTTTGTTTTCAACTTGCGGAGTCACCTAGTGCAG”: the binding signal is 47200 fluorescence intensity (a.u.).
With “ACAGTAATGGGCCGGTAATTTTGGCCCAGTGGTCTTCCAACGGAGTCACCTAGTGCAG”, the binding signal was 4460 fluorescence intensity (a.u.).
For “CCCCTGATCTAAATACAGACTGATTATATGTTGTGATGGACGGAGTCACCTAGTGCAG” the value was 8740 fluorescence intensity (a.u.); for “GAAGATTGTGATTGGATGCAAGTGAAGATAAGTGAGGAAACGGAGTCACCTAGTGCAG”, 22500 fluorescence intensity (a.u.).
As for “CTGTGATAATCTGTCTTCCTGTGATACCAGCACTGTTTCCCGGAGTCACCTAGTGCAG”, the binding signal is 3340 fluorescence intensity (a.u.).
On to “AACTTGATATCAATCTTGTTCTGGTTTTGGATTTGAATTTCGGAGTCACCTAGTGCAG”, for which the binding signal was 18000 fluorescence intensity (a.u.).
Turning to “TGACCACTTCAAATCAATTACTGCCTGAGCTCACTTGACCCGGAGTCACCTAGTGCAG”, the binding signal is 10300 fluorescence intensity (a.u.).
As to “TTGTATAATTAAAATGATATATTGCATTGACATTTCAATCCGGAGTCACCTAGTGCAG”, the binding signal was 8770 fluorescence intensity (a.u.).
On to “AATGTTTAATTGGATCCAAGAGTATAATGCGTTTGAATTACGGAGTCACCTAGTGCAG”, for which the binding signal is 12900 fluorescence intensity (a.u.).
Turning to “ATTCCTAACCCAATAATTAGGATGATGTCCATAGCATTAACGGAGTCACCTAGTGCAG”, the binding signal is 25300 fluorescence intensity (a.u.).
In the case of “CTAGAACATAATTACTATATGTATGACTCCGACCTGCACACGGAGTCACCTAGTGCAG”, the binding signal was 9450 fluorescence intensity (a.u.).
Take “TCTGATTTGTTGGTGATGTGTTGCTGTACTTCTTGTTCTGCGGAGTCACCTAGTGCAG”: the binding signal is 36800 fluorescence intensity (a.u.).
Consider “AATTATTGATTTGATGAAACTAATTTAGTATTATAAAGAGCGGAGTCACCTAGTGCAG”, for which the binding signal is 51000 fluorescence intensity (a.u.).
In the case of “TAACGGATTGATACATCTGGTTACAAATGTGCACTACATACGGAGTCACCTAGTGCAG” it was 3880 fluorescence intensity (a.u.); in that of “AGGCTAATTAACAGAGAGGGGACAATATGCAACAACGTATCGGAGTCACCTAGTGCAG”, 24000 fluorescence intensity (a.u.); in that of “ATCTGTCCTGATTATCATTTGTTTTATGATAAACTTACCTCGGAGTCACCTAGTGCAG”, 9670 fluorescence intensity (a.u.).
Consider “CCTGGGCCAATCAAAAGCCGGTCCATTTGGCCCACTAACCCGGAGTCACCTAGTGCAG”, for which the binding signal is 3170 fluorescence intensity (a.u.).
In the case of “TAAATTTCCTGCAGATTGTCATGCAATCAGACATGCTCATCGGAGTCACCTAGTGCAG” it was 5960 fluorescence intensity (a.u.); in that of “CCTCAATAAATTAACTTAACAGAAATACAATACATGTACGCGGAGTCACCTAGTGCAG”, 10900 fluorescence intensity (a.u.); in that of “CAAACATAATGATGATACAAATATTTGTTAATATTGTTCGCGGAGTCACCTAGTGCAG”, 7430 fluorescence intensity (a.u.).
In the case of “TTCAAATTTAAGGTTGAAAATTTAAAGTTTGGCTGATAAGCGGAGTCACCTAGTGCAG” it was 4040 fluorescence intensity (a.u.).
“CTGACATCATCATCAAATTAGGGGACAATTGGAATTCTATCGGAGTCACCTAGTGCAG”: the binding signal is 13600 fluorescence intensity (a.u.).
With “ACGTGCGAGATAGATGAAAATGAAATTTATTTTAAGGCTGCGGAGTCACCTAGTGCAG”, the binding signal is 4480 fluorescence intensity (a.u.).
As to “ACGTTTTAAAATGTTTTAGATTAGACACATGGAAAACAGTCGGAGTCACCTAGTGCAG”, the binding signal is 3330 fluorescence intensity (a.u.).
Regarding “ATTTTGTGATTAGTCTCTTGTGATTAAGAGAAAATTATGGCGGAGTCACCTAGTGCAG”, the binding signal is 29800 fluorescence intensity (a.u.).
Take “ATTGATTGACCGAGCGCACTACTCTTTATCTTTTCGATTGCGGAGTCACCTAGTGCAG”: the binding signal was 64900 fluorescence intensity (a.u.).
Consider “TATATATATTTAAATTTAATGCTATTTATCTCATATGATGCGGAGTCACCTAGTGCAG”, for which the binding signal was 4080 fluorescence intensity (a.u.).
For “GCACCAATTAATATTGGAGCTATCGTTCTTCTTCCCATCACGGAGTCACCTAGTGCAG”, the binding signal is 3290 fluorescence intensity (a.u.).
